From the supplement of paper PMC11055344

How the values were obtained:
penicillin G = compound: CC1(C)S[C@@H]2[C@H](NC(=O)Cc3ccccc3)C(=O)N2[C@H]1C(=O)O [penicillin G]; assay: Broth microdilution.
amoxicillin = compound: CC1(C)S[C@@H]2[C@H](NC(=O)[C@H](N)c3ccc(O)cc3)C(=O)N2[C@H]1C(=O)O [amoxicillin]; assay: Broth microdilution.

| Test System | MIC (penicillin G) | MIC (amoxicillin) |
| --- | --- | --- |
| Streptococcus pneumoniae isolate 200 (PBP alleles 1a 2b 2x: 0_0_2, serotype: 10A) | 0.03 µg/mL | ≤ 0.01 µg/mL |
| Streptococcus pneumoniae isolate 201 (PBP alleles 1a 2b 2x: 11_0_0, serotype: 17F) | 0.03 µg/mL | ≤ 0.01 µg/mL |
| Streptococcus pneumoniae isolate 202 (PBP alleles 1a 2b 2x: 1_0_0, serotype: 9N) | ≤ 0.01 µg/mL | ≤ 0.01 µg/mL |
| Streptococcus pneumoniae isolate 203 (PBP alleles 1a 2b 2x: 0_0_3, serotype: 35F) | ≤ 0.01 µg/mL | ≤ 0.01 µg/mL |
| Streptococcus pneumoniae isolate 204 (PBP alleles 1a 2b 2x: 24_27_28, serotype: 15A) | 0.25 µg/mL | 0.03 µg/mL |
| Streptococcus pneumoniae isolate 205 (PBP alleles 1a 2b 2x: 2_3_2, serotype: 3) | ≤ 0.01 µg/mL | ≤ 0.01 µg/mL |
| Streptococcus pneumoniae isolate 206 (PBP alleles 1a 2b 2x: 23_4_77, serotype: 12F) | 0.06 µg/mL | 0.03 µg/mL |
| Streptococcus pneumoniae isolate 207 (PBP alleles 1a 2b 2x: 2_0_2, serotype: 15B/C) | 0.03 µg/mL | ≤ 0.01 µg/mL |
| Streptococcus pneumoniae isolate 208 (PBP alleles 1a 2b 2x: 1_0_0, serotype: 15A) | 0.03 µg/mL | 0.03 µg/mL |
| Streptococcus pneumoniae isolate 209 (PBP alleles 1a 2b 2x: 0_0_2, serotype: 10A) | 0.03 µg/mL | ≤ 0.01 µg/mL |
| Streptococcus pneumoniae isolate 210 (PBP alleles 1a 2b 2x: 0_0_0, serotype: 35B) | 0.03 µg/mL | ≤ 0.01 µg/mL |
| Streptococcus pneumoniae isolate 211 (PBP alleles 1a 2b 2x: 2_6_0, serotype: 11A) | 0.03 µg/mL | ≤ 0.01 µg/mL |
| Streptococcus pneumoniae isolate 212 (PBP alleles 1a 2b 2x: 2_0_6, serotype: 33F) | 0.03 µg/mL | 0.03 µg/mL |
| Streptococcus pneumoniae isolate 213 (PBP alleles 1a 2b 2x: 2_0_2, serotype: 15B/C) | 0.03 µg/mL | ≤ 0.01 µg/mL |
| Streptococcus pneumoniae isolate 214 (PBP alleles 1a 2b 2x: 1_0_2, serotype: 21) | ≤ 0.01 µg/mL | ≤ 0.01 µg/mL |
| Streptococcus pneumoniae isolate 215 (PBP alleles 1a 2b 2x: 24_27_28, serotype: 15A) | 0.25 µg/mL | 0.03 µg/mL |
| Streptococcus pneumoniae isolate 216 (PBP alleles 1a 2b 2x: 1_0_0, serotype: 15B/C) | ≤ 0.01 µg/mL | ≤ 0.01 µg/mL |
| Streptococcus pneumoniae isolate 217 (PBP alleles 1a 2b 2x: 0_6_2, serotype: 16F) | 0.03 µg/mL | ≤ 0.01 µg/mL |
| Streptococcus pneumoniae isolate 218 (PBP alleles 1a 2b 2x: 2_0_2, serotype: 15B/C) | ≤ 0.01 µg/mL | ≤ 0.01 µg/mL |
| Streptococcus pneumoniae isolate 219 (PBP alleles 1a 2b 2x: 2_6_0, serotype: 11A) | ≤ 0.01 µg/mL | ≤ 0.01 µg/mL |

| Test System | MIC (penicillin G) | MIC (amoxicillin) |
| --- | --- | --- |
| Streptococcus pneumoniae isolate 220 (PBP alleles 1a 2b 2x: 11_0_0, serotype: 13) | 0.03 µg/mL | ≤ 0.01 µg/mL |
| Streptococcus pneumoniae isolate 221 (PBP alleles 1a 2b 2x: 23_27_77, serotype: 12F) | 0.125 µg/mL | 0.125 µg/mL |
| Streptococcus pneumoniae isolate 222 (PBP alleles 1a 2b 2x: 23_0_0, serotype: 9N) | 0.03 µg/mL | ≤ 0.01 µg/mL |
| Streptococcus pneumoniae isolate 223 (PBP alleles 1a 2b 2x: 0_0_53, serotype: 10A) | 0.03 µg/mL | ≤ 0.01 µg/mL |
| Streptococcus pneumoniae isolate 224 (PBP alleles 1a 2b 2x: 2_0_6, serotype: 23A) | 0.03 µg/mL | 0.03 µg/mL |
| Streptococcus pneumoniae isolate 225 (PBP alleles 1a 2b 2x: 2_0_2, serotype: 15B/C) | ≤ 0.01 µg/mL | ≤ 0.01 µg/mL |
| Streptococcus pneumoniae isolate 226 (PBP alleles 1a 2b 2x: 2_0_2, serotype: 21) | ≤ 0.01 µg/mL | ≤ 0.01 µg/mL |
| Streptococcus pneumoniae isolate 227 (PBP alleles 1a 2b 2x: 2_0_2, serotype: 15B/C) | ≤ 0.01 µg/mL | ≤ 0.01 µg/mL |
| Streptococcus pneumoniae isolate 228 (PBP alleles 1a 2b 2x: 2_0_6, serotype: 23A) | 0.03 µg/mL | ≤ 0.01 µg/mL |
| Streptococcus pneumoniae isolate 229 (PBP alleles 1a 2b 2x: 0_0_0, serotype: 23B) | ≤ 0.01 µg/mL | 0.03 µg/mL |
| Streptococcus pneumoniae isolate 230 (PBP alleles 1a 2b 2x: 3_6_5, serotype: 8) | 0.03 µg/mL | ≤ 0.01 µg/mL |
| Streptococcus pneumoniae isolate 231 (PBP alleles 1a 2b 2x: 2_0_2, serotype: 15B/C) | 0.03 µg/mL | ≤ 0.01 µg/mL |
| Streptococcus pneumoniae isolate 232 (PBP alleles 1a 2b 2x: 11_0_0, serotype: 34) | 0.03 µg/mL | ≤ 0.01 µg/mL |
| Streptococcus pneumoniae isolate 233 (PBP alleles 1a 2b 2x: 2_0_2, serotype: 15B/C) | 0.03 µg/mL | ≤ 0.01 µg/mL |
| Streptococcus pneumoniae isolate 234 (PBP alleles 1a 2b 2x: 78_0_0, serotype: Serogroup 24) | 0.03 µg/mL | ≤ 0.01 µg/mL |
| Streptococcus pneumoniae isolate 235 (PBP alleles 1a 2b 2x: 2_0_2, serotype: 21) | 0.03 µg/mL | ≤ 0.01 µg/mL |
| Streptococcus pneumoniae isolate 236 (PBP alleles 1a 2b 2x: 0_0_0, serotype: 15B/C) | 0.03 µg/mL | ≤ 0.01 µg/mL |
| Streptococcus pneumoniae isolate 237 (PBP alleles 1a 2b 2x: 2_0_2, serotype: 23A) | 0.03 µg/mL | 0.03 µg/mL |
| Streptococcus pneumoniae isolate 238 (PBP alleles 1a 2b 2x: 1_0_0, serotype: 15A) | ≤ 0.01 µg/mL | ≤ 0.01 µg/mL |
| Streptococcus pneumoniae isolate 239 (PBP alleles 1a 2b 2x: 0_0_0, serotype: 23B) | 0.03 µg/mL | 0.03 µg/mL |

| Test System | MIC (penicillin G) | MIC (amoxicillin) |
| --- | --- | --- |
| Streptococcus pneumoniae isolate 240 (PBP alleles 1a 2b 2x: 2_0_2, serotype: 21) | 0.03 µg/mL | 0.03 µg/mL |
| Streptococcus pneumoniae isolate 241 (PBP alleles 1a 2b 2x: 2_0_3, serotype: 7C) | 0.03 µg/mL | ≤ 0.01 µg/mL |
| Streptococcus pneumoniae isolate 242 (PBP alleles 1a 2b 2x: 2_6_0, serotype: 11A) | ≤ 0.01 µg/mL | ≤ 0.01 µg/mL |
| Streptococcus pneumoniae isolate 243 (PBP alleles 1a 2b 2x: 2_0_2, serotype: 21) | 0.03 µg/mL | ≤ 0.01 µg/mL |
| Streptococcus pneumoniae isolate 244 (PBP alleles 1a 2b 2x: 1_0_187, serotype: 19A) | 0.03 µg/mL | ≤ 0.01 µg/mL |
| Streptococcus pneumoniae isolate 245 (PBP alleles 1a 2b 2x: 2_6_0, serotype: 11A) | ≤ 0.01 µg/mL | 0.03 µg/mL |
| Streptococcus pneumoniae isolate 246 (PBP alleles 1a 2b 2x: 7_1_1, serotype: 23B1) | 0.25 µg/mL | 0.06 µg/mL |
| Streptococcus pneumoniae isolate 247 (PBP alleles 1a 2b 2x: 1_2_2, serotype: 22F) | 0.03 µg/mL | ≤ 0.01 µg/mL |
| Streptococcus pneumoniae isolate 248 (PBP alleles 1a 2b 2x: 0_0_2, serotype: 35B) | 0.03 µg/mL | ≤ 0.01 µg/mL |
| Streptococcus pneumoniae isolate 249 (PBP alleles 1a 2b 2x: 0_0_2, serotype: 35B) | ≤ 0.01 µg/mL | ≤ 0.01 µg/mL |
| Streptococcus pneumoniae isolate 250 (PBP alleles 1a 2b 2x: 2_0_2, serotype: 21) | ≤ 0.01 µg/mL | ≤ 0.01 µg/mL |
| Streptococcus pneumoniae isolate 251 (PBP alleles 1a 2b 2x: 0_0_3, serotype: 35F) | 0.03 µg/mL | 0.03 µg/mL |
| Streptococcus pneumoniae isolate 252 (PBP alleles 1a 2b 2x: 2_6_0, serotype: 11A) | 0.03 µg/mL | ≤ 0.01 µg/mL |
| Streptococcus pneumoniae isolate 253 (PBP alleles 1a 2b 2x: 2_0_6, serotype: 23A) | 0.03 µg/mL | ≤ 0.01 µg/mL |
| Streptococcus pneumoniae isolate 254 (PBP alleles 1a 2b 2x: 78_0_0, serotype: Serogroup 24) | ≤ 0.01 µg/mL | ≤ 0.01 µg/mL |
| Streptococcus pneumoniae isolate 255 (PBP alleles 1a 2b 2x: 1_0_0, serotype: 9N) | 0.03 µg/mL | 0.03 µg/mL |
| Streptococcus pneumoniae isolate 256 (PBP alleles 1a 2b 2x: 0_1_1, serotype: 23B1) | 0.125 µg/mL | 0.06 µg/mL |
| Streptococcus pneumoniae isolate 257 (PBP alleles 1a 2b 2x: 1_0_0, serotype: Serogroup 24) | ≤ 0.01 µg/mL | ≤ 0.01 µg/mL |
| Streptococcus pneumoniae isolate 258 (PBP alleles 1a 2b 2x: 2_0_2, serotype: 15B/C) | 0.03 µg/mL | 0.03 µg/mL |

MIC of nasopharyngeal S. pneumoniae isolates by broth microdilution (range and time not stated); higher = less susceptible. No active / inactive call per row; the paper counts penicillin above 0.06 and amoxicillin above 0.5 mg/L as non-susceptible (EUCAST). The lowest value, 0.01, is taken as the floor ('<='); the source prints it plain. Penicillin G is assumed for 'penicillin'. Isolates are numbered anew. PBP alleles are the type numbers of penicillin-binding proteins 1a, 2b and 2x; equal numbers mean equal sequences.
